# Measured values as given in the supplement of paper PMC3334620.
# Whole data set: some 33,000 sequences, median “E-score (-0.5 to 0.5)” near -0.054, cut for the highest 2% near 0.39. Some of the results follow.
# Target: Ylr278c (UniProt Q05854)
# Experiment: PBM E-score (8-mer binding enrichment) (E-score (-0.5 to 0.5)); higher = stronger / more preferred TF binding; most listed sequences are background and not binding sites
# Settings: protein concentration: 200 nM; construct: GST-DNA-binding domain
# In short: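 PURExpress in vitro transcription/translation supplied GST-tagged yeast transcription factors, either full-length or DNA-binding domain. Applied at about 100-200 nM to universal all-10-mer Agilent arrays double-stranded by primer extension, the bound protein was detected with fluorescent anti-GST. E-scores, modified Wilcoxon-Mann-Whitney statistics, were given by the Universal PBM Analysis Suite to ungapped eight-base words pooled with their reverse complements after masliner normalisation.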
row,Sequence,PBM E-score
1,GACGTCGC,-0.27
2,CATGGGCC,-0.0231
3,ATATCGGC,0.319
4,CTATCCTC,-0.0361
5,TACCAGTA,-0.128
6,GGAAGTAC,0.253
7,GTGCTGAA,-0.106
8,GTCCCGAC,0.234
9,ACCGACGA,0.142
10,CATTAGGA,-0.171
11,GGGTGGAA,-0.0907
12,GGTCGTAC,-0.0166
13,TATTAAAA,0.0268
14,GAAGACTC,-0.134
15,ACCGCGGT,0.178
16,CCCTTCCG,0.277
17,ATATATCC,0.257
18,AGGTAGAT,-0.111
19,AACAGTAA,-0.0899
20,AATCTGCG,0.327
21,ACTAGAGT,-0.201
22,CCCTTTAC,-0.0176
23,AAAAAGTA,-0.0712
24,ACAGCTCT,-0.304
25,ACTGTTAA,-0.209

row,Sequence,PBM E-score
1,CTCTAGAG,-0.226
2,ACGCCCGC,0.209
3,AACTTTCG,-0.00201
4,GATGACAC,-0.0218
5,CAACGATG,-0.243
6,AATGGATA,-0.0137
7,AGGAAAAG,-0.0019
8,CCCTCTGA,-0.097
9,GTCTGTCA,-0.0519
10,CATCGTCA,-0.119
11,GTGGGCCA,-0.116
12,GTTCAGCA,-0.175
13,ATCGAGGC,-0.142
14,ACCTGGTG,-0.018
15,AAAGGAGT,0.0155
16,AATCGCGG,0.237
17,GGTCCAAC,0.00905
18,GACTGAAC,0.00033
19,CGTCAGGA,-0.211
20,GATGTACA,-0.00924
21,CACCTGCC,-0.0825
22,AGATGTAT,-0.138
23,ACAGAATC,-0.0982
24,TATATTAA,0.0108
25,ACTGCGAC,0.0811

row,Sequence,PBM E-score
1,TAACTCGA,-0.0975
2,AACTTGTC,0.0361
3,CAGTAGCG,0.0152
4,CTAGGTAA,-0.185
5,ACCGCTAG,-0.19
6,AAACGAGG,-0.129
7,ACACGTGA,0.00211
8,ACCGAGGT,0.0807
9,CGAATAAC,0.0535
10,GTGTTCAA,-0.0308
11,GAGCCAGC,-0.0193
12,CCTCACCG,0.0908
13,CCCCCGAC,0.228
14,AAAGCGGC,0.245
15,CTCTCTTA,-0.169
16,CGAAGTTA,0.0676
17,ACTTTAAA,0.21
18,AGACGTGG,-0.124
19,AGTGCTCA,-0.307
20,CAAGCTCA,-0.279
21,AGCGGTGG,0.132
22,CGATTATA,0.0463
23,AAGTCCTC,0.122
24,AATCCTGT,-0.0674
25,CTTATGAC,-0.00377

row,Sequence,PBM E-score
1,GAATTCGA,0.0907
2,CGTTATTC,0.037
3,AGCATGTA,-0.239
4,GCTGAGAA,-0.179
5,GGTATACC,0.056
6,CACCGAGC,0.152
7,GGGGACCA,-0.0982
8,AGTGTTCC,0.104
9,CCATGCAC,-0.134
10,ACTTTTCC,0.278
11,ATAGAGAG,-0.283
12,TGTTGCAA,0.125
13,TATGAGCA,-0.202
14,GAGCGGCA,0.207
15,CAAGCCCC,0.107
16,CAGTGACA,-0.191
17,ATATAAAT,0.0912
18,AACCCAAA,-0.0513
19,ACTAGCTG,-0.342
20,CCCGCGAC,0.194
21,AGTTAGCG,0.0104
22,CACTTAGA,-0.107
23,GTAACAGA,0.0062
24,CGTTACAA,-0.244
25,GGACTCAA,0.108

row,Sequence,PBM E-score
1,ATAACGAG,-0.193
2,GGAACGCA,0.0937
3,CTCGTAAA,-0.102
4,CATGTTTC,0.00321
5,TGATTGAA,-0.109
6,AGGCCCGA,0.123
7,ATTTATCA,0.0798
8,ACGAAAGA,-0.0168
9,ATGACGCG,-0.0237
10,CTCACTTA,-0.183
11,CGCCCTAG,-0.147
12,AACTGTCC,0.0441
13,CACGTGGA,-0.201
14,TTGAACAA,-0.128
15,AAAGTGTA,-0.201
16,TCGCTTAA,0.0282
17,AGACCGTA,0.0334
18,CCCGGCAG,0.263
19,CAAGGATC,-0.102
20,ACTAGATC,-0.181
21,ATGCGTGG,-0.281
22,ACCTAACG,-0.124
23,ATCCGTGA,0.244
24,ATCTAAGG,-0.172
25,GACCTCGA,0.00483

row,Sequence,PBM E-score
1,ATTACCAG,-0.0426
2,ACATCTCA,-0.201
3,TTCTAGAA,-0.193
4,ACAACTGG,-0.0905
5,ACGGGTCC,0.172
6,ATAAGACG,-0.245
7,ACCGCGCG,0.282
8,TATCCTGA,-0.121
9,GATATCCA,-0.107
10,ATCAAAAA,0.0906
11,CGTGACTC,-0.104
12,CGTCACAC,-0.034
13,CCCTCCAC,-0.0768
14,CAGCAGGG,-0.158
15,AACATTAG,-0.227
16,TACAAAAA,-0.0414
17,GCACAGGC,-0.0619
18,CAGACGGC,0.0112
19,CGGGCCGC,0.183
20,AGCAGGCG,0.0223
21,GACGTTGA,-0.0565
22,CCCCGACA,0.301
23,AATTCCGT,0.441
24,CAATTCAC,0.00819
25,TGAGCACA,-0.151

row,Sequence,PBM E-score
1,ACGTACCT,-0.332
2,CCTCACGC,-0.0491
3,ACGCATGA,-0.0973
4,CGGTGCAA,0.147
5,TGCCGCAA,0.0796
6,CTCACCAG,-0.142
7,ACCAAGTC,0.0334
8,TATGAGAA,-0.0399
9,AGGAACAT,-0.391
10,CTCAGCTA,-0.3
11,AGAAACTA,-0.18
12,GATCAATA,-0.151
13,CGTCCACG,0.0154
14,CAAGTAGC,-0.305
15,ATAATTCG,0.00023
16,CGGGCTAC,0.183
17,AGCTTTTA,-0.103
18,CTAACTGA,-0.0127
19,ACCATGGA,-0.261
20,GCGTGGAC,0.0561
21,CGTGTCTA,-0.133
22,GCGACGCA,-0.0248
